According to PubChem BioAssay AID1478 (National Center for Advancing Translational Sciences (NCATS), 2009):
Screen size: about 200,000 compounds; about 860 (0.43%) were called active. Inconclusive results, whose numbers are uncertain, are shown with a selection of clear calls. Calls come from the whole dose curve; as a rule, active = well fitted inhibition curve with a large enough effect; inconclusive = small, poorly fitted or top-dose-only effect; inactive = flat fitted curve, though single readings scatter. Potencies beside an inconclusive call are fits to weak or partial responses and may not hold up.
Note: nearly all actives have a fitted effect of over 40% in size.
Potency is the fitted concentration of half-maximal effect; tags give direction and shape of the fitted curve.
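Throughout, for max response, negative = inhibition: plate controls were neutral wells for no effect and buffer without enzyme for full effect.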

These molecules were tested against Cruzipain (Trypanosoma cruzi) (UniProt P25779) (assay: qHTS Assay for Promiscuous and Specific Inhibitors of Cruzain (with detergent)). Settings: purified cruzain, Z-FR-AMC fluorescence, 0.01% Triton.
Sequence of UniProt P25779 (P25779 whole entry, looked up): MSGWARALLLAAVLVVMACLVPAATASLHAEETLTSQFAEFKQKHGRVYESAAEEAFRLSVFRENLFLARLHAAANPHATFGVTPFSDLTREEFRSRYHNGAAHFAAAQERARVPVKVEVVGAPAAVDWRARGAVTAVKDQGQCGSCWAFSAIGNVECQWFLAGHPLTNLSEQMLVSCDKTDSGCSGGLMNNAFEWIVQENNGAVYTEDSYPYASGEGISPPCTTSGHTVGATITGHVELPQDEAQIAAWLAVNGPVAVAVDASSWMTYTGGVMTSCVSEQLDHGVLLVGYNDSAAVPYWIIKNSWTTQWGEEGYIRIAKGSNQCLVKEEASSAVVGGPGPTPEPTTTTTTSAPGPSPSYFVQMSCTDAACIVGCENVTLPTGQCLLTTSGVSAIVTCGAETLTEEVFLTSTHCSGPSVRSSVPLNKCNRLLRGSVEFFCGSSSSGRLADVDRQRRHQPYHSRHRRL
Procedure, shortened: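 Purified cruzain (1.5 nM final) was preincubated with compounds for 15 min at room temperature in 100 mM sodium acetate pH 5.5, 5 mM DTT, 0.01% Triton X-100. Reaction started with 2 uM Z-FR-AMC; AMC fluorescence change over 60 s gave activity.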
For `Nc1cc(N)cc(-c2nc3ccccc3[nH]2)c1`, the Potency was inconclusive: 39.8 µM [inhibitor, single point].
For `CCC1=C2CC[C@H]3C(=O)N(c4ccccc4)C(=O)[C@H]3[C@H]2[C@@]2(C)C(=O)N(CC(=O)OC)C(=O)N2C1=O`, the max response, negative = inhibition was inactive: -0.433%.
`COc1ccccc1C(=O)Nc1ccc(S(=O)(=O)Nc2ncccn2)cc1` was tested, and the max response, negative = inhibition was inactive: -1.76%.
In the case of `Cc1cccc(OCCCn2c(CCNC(=O)C3CCCCC3)nc3ccccc32)c1`, the Potency was active: 2 µM.
For `CSc1nc(SCCO)c2sc3nc(-c4ccco4)c4c(c3c2n1)CC(C)(C)OC4`, the Potency was inconclusive: 22.4 µM [inhibitor, partial curve].
In the case of `COc1ccc(OC)c(NC(=O)CC(=O)Nc2ccc3nc4n(c(=O)c3c2)CCCCC4)c1`, the max response, negative = inhibition was inactive: -6.82%.
For `COc1ccc(C(C)=O)cc1COC(=O)c1ccc2c(c1)OCO2`, the Potency was inconclusive: 25.1 µM [inhibitor, partial curve].
`O=C(O)c1c(Cl)c(Cl)c(Cl)c(Cl)c1-c1c2cc(I)c(=O)c(I)c-2oc2c(I)c(O)c(I)cc12` was tested, and the Potency was active: 12.6 µM.
For `COc1ccc(C(=O)Nc2cc(C(=O)c3ccccc3)c(C)oc2=O)cc1`, the Potency was active: 12.6 µM.
With `Cc1ccc2nc3c(cc(C(=O)NCC4CCCO4)c(=N)n3CCCOC(C)C)c(=O)n2c1` (centres undefined) the Potency was inconclusive: 28.2 µM [inhibitor, single point].
In the case of `COc1ccc(C(=O)C(OC(=O)CNC(=O)c2ccco2)c2ccccc2)cc1` (centres undefined), the Potency was active: 3.98 µM.
In the case of `CCc1ccccc1N1CSC2=C(C#N)C(c3cc(OC)c(OC)cc3OC)CC(=O)N2C1` (centres undefined), the max response, negative = inhibition was inactive: -9.56%.
`Cc1c(NC(=O)C(C)(C)Oc2ccc(Cl)cc2)cccc1-c1nc2ccccc2o1` was tested, and the max response, negative = inhibition was inactive: -5.39%.
With `O=C(Nc1c(Cl)cc(Cl)cc1-c1nc2ccccc2s1)c1ccc(Br)o1` the Potency was inconclusive: 25.1 µM [inhibitor, single point].
In the case of `CN1CCc2c(sc3c2C(=O)NC(c2cn(Cc4ccccc4)c4ccccc24)N3)C1` (centres undefined), the Potency was inconclusive: 22.4 µM [inhibitor, single point].
With `CCOc1cccc2c1N[C@@H](c1ccc(C(=O)O)cc1)[C@H]1CC=C[C@@H]21` the Potency was inconclusive: 22.4 µM [inhibitor, single point].
In the case of `Cc1c(C)c2ccc(OS(C)(=O)=O)cc2oc1=O`, the Potency was inconclusive: 31.6 µM [inhibitor, single point].
With `Cc1ccc2[nH]c(=O)c(NC(N)=S)nc2c1` the Potency was active: 1.78 µM.
`CCc1nc2cccnc2n1-c1ccc(CC(=O)Nc2cccc(C)c2C)cc1` was tested, and the Potency was active: 15.8 µM.
With `C=CCN1C(c2ccccc2)=CS/C1=C(/C#N)c1nnc(N2CCOCC2)n1-c1ccccc1` the Potency was inconclusive: 17.8 µM [inhibitor, single point].
For `CCOC(=O)c1ccc(N2C(=O)c3n[nH]c(-c4ccco4)c3C2c2ccc(C(=O)OC)cc2)cc1` (centres undefined), the Potency was inconclusive: 25.1 µM [inhibitor, single point].
In the case of `Cc1cccn2c(=O)c3cc(C(=O)NCCN4CCOCC4)c(=N)n(CCc4ccccc4)c3nc12`, the Potency was inconclusive: 31.6 µM [inhibitor, single point].
With `O=C(NC1CN2CCC1CC2)c1ccc(-c2ccc([N+](=O)[O-])cc2)o1` (centres undefined) the Potency was inconclusive: 35.5 µM [inhibitor, single point].
For `Cc1ccc(NC(=S)N2CCCC(c3nc4ccc(C)cc4[nH]3)C2)c(C)c1` (centres undefined), the Potency was inconclusive: 25.1 µM [inhibitor, single point].
`O=C(NCc1ccco1)c1sc2cc(Cl)ccc2c1Cl` was tested, and the Potency was inconclusive: 31.6 µM [inhibitor, single point].
`Cc1ccc(C)c(NC(=O)/C(C#N)=C/c2ccc(C(C)C)cc2)c1` was tested, and the max response, negative = inhibition was inactive: -2.18%.
For `COCCCn1c(N)c(C(=O)OCCOC)c2nc3ccccc3nc21`, the Potency was inconclusive: 39.8 µM [inhibitor, single point].
With `O=C(COC(=O)CCSc1ccccc1)Nc1ccc(F)cc1Cl` the Potency was inconclusive: 28.2 µM [inhibitor, single point].
In the case of `CCOc1nc(C#N)nc(N2CCCCC2)n1`, the Potency was active: 0.562 µM.
In the case of `Cc1cccn2c(=O)c(C(=O)NCCc3ccccc3)cnc12`, the max response, negative = inhibition was inactive: -3.27%.
`CCOc1ccc(-n2cc(-c3ccccc3)c3c(N4CCN(c5ccccc5OC)CC4)ncnc32)cc1` was tested, and the max response, negative = inhibition was inactive: -0.0861%.
With `N#Cc1c(NCCCO)nc(-c2ccco2)c2c1CCCC2` the Potency was active: 15.8 µM.
In the case of `COc1ncc2nc(-c3ccc(F)cc3)c(=O)n(C)c2n1`, the max response, negative = inhibition was inactive: 3.31%.
In the case of `Cc1cc(C)c(/C=C/c2onc(C)c2S(=O)(=O)N2CCC(C(=O)NCc3ccccc3Cl)CC2)c(C)c1`, the max response, negative = inhibition was inactive: -4.47%.
For `CCN(CC)Cc1c(O)c(Cl)cc2c3c(c(=O)oc12)CCCC3`, the Potency was inconclusive: 35.5 µM [inhibitor, single point].
`Cc1noc(NS(=O)(=O)c2ccc(NC(=O)Nc3ccc(Cl)c(Cl)c3)cc2)c1C` was tested, and the Potency was inconclusive: 28.2 µM [inhibitor, single point].
For `COCCn1c(-c2ccco2)nc2nc3ccccc3nc21`, the Potency was active: 28.2 µM.
`CCCN1CCN(CCCNC(=O)c2cc3c(s2)-c2ccccc2OC3)CC1` was tested, and the Potency was inconclusive: 31.6 µM [inhibitor, single point].
In the case of `COc1ccc2cc3cc(C(=O)NCCN4CCN(c5ccccc5F)CC4)oc3nc2c1`, the Potency was inconclusive: 31.6 µM [inhibitor, single point].
With `N#CC(C#N)=NNc1ccc(OC(F)(F)F)cc1` the Potency was inconclusive: 15.8 µM [inhibitor, partial curve].
In the case of `CCCCCc1ccc(-c2ccc(/C=C/C(=O)O)cc2)nc1`, the Potency was inconclusive: 15.8 µM [inhibitor, partial curve].
For `COc1ccccc1C(=O)NCC(=O)OCC(=O)c1ccc2c(c1)-c1ccccc1C2`, the Potency was inconclusive: 10 µM [inhibitor, partial curve].
In the case of `CCOC(=O)N1CCN(CCC(=O)c2ccc(Cl)cc2)CC1`, the Potency was active: 14.1 µM.
`O=C(NCCN1CCCCCC1)C1CCC(CNS(=O)(=O)c2cccc3cccnc23)CC1` (centres undefined) was tested, and the Potency was inconclusive: 35.5 µM [inhibitor, single point].
